{
  "source": "patent US20230059690A1",
  "about": "(published 2023)",
  "key": {"cynomolgus monkey PSMA": {"biological_target": "T1, cynomolgus monkey PSMA (cynomolgus monkey, UniProt A0A2K5VNZ0 44-750)", "T1 chain": "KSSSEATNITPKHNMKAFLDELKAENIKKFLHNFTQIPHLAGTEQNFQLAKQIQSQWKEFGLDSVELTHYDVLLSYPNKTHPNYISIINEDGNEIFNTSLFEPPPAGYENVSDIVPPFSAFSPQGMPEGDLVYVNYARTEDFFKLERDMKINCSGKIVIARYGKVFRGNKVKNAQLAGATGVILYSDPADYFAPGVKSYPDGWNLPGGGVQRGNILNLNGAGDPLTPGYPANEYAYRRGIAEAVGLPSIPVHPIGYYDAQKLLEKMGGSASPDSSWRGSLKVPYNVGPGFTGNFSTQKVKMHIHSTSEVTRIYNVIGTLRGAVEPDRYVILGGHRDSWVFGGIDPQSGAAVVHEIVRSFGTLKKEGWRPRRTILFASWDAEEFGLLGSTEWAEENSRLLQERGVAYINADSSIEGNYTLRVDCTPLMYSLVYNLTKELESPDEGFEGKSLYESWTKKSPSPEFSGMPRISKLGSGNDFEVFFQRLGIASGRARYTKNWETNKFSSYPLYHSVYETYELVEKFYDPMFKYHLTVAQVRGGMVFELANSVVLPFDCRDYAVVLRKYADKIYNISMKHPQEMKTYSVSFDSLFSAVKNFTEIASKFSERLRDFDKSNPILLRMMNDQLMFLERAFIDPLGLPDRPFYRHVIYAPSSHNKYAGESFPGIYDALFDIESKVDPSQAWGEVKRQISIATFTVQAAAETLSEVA", "assay": "SPR"}, "human PSMA": {"biological_target": "human PSMA (human, UniProt Q04609)", "assay": "SPR"}},
  "data": [
    {"binder": "cHv75-2a11.G1(L328C)k-AGL-01332-93 (other, AGL-01332-93 drug-linker conjugated (DAR 1.93). The examples do not state the site; the name points to the engineered cysteine L328C.) heavy: QVQLVESGGGVVQPGRSLRLSCAASGFTFSSYDMHWVRQAPGKGLEWVAVIWYDGSNKYYADSLKGRFTISRDNSKNTLYLQMNSLRAEDTAVYYCARVIAARTFYYYGMDVWGQGTTVTVSSASTKGPSVFPLAPSSKSTSGGTAALGCLVKDYFPEPVTVSWNSGALTSGVHTFPAVLQSSGLYSLSSVVTVPSSSLGTQTYICNVNHKPSNTKVDKKV[human IgG1 Fc with L328C (EU numbers) omitted] light: [about 120 residues omitted][about 100 residues omitted]", "values": [
      {"measurement": "Kd", "setting": "cynomolgus monkey PSMA", "value": 47, "unit": "nM"},
      {"measurement": "Kd", "setting": "human PSMA", "value": 68, "unit": "nM"}
    ]}
  ]
}
